# The list shows a part of the results.
# Experiments:
# Assay in all cases: glycan array binding signal (z-score within array); higher = stronger binding
# Conditions in all cases: glycan notation: IUPAC condensed, linker removed
# [1] = biological target: Neu5Ac(a2-6)GlcNAc(b1-4)GlcNAc(b1-4)GlcNAc
# Outline: (§1)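 Arrays were curated from the Consortium for Functional Glycomics database, 3228 in total, and kept only where the protein sequence was available. Binding is expressed as a within-array Z-score. This score was averaged across arrays of the same protein sequence at different concentrations or buffers and across linkers, and negative values can be read as non-binding.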
# Neu5Ac(a2-8)Neu5Ac = biological target: Neu5Ac(a2-8)Neu5Ac
# Outline: as §1
# [2] = biological target: Neu5Ac(a2-8)Neu5Ac(a2-3)Gal(b1-3)GalNAc(b1-4)[Neu5Ac(a2-3)]Gal(b1-4)Glc
# Outline: as §1
# [3] = biological target: Neu5Ac(a2-8)Neu5Ac(a2-3)Gal(b1-3)GalNAc(b1-4)[Neu5Ac(a2-8)Neu5Ac(a2-3)]Gal(b1-4)Glc
# Outline: as §1
# [4] = biological target: Neu5Ac(a2-8)Neu5Ac(a2-3)Gal(b1-4)Glc
# Outline: as §1
# [5] = biological target: Neu5Ac(a2-8)Neu5Ac(a2-3)Gal(b1-4)GlcNAc
# Outline: as §1
# [6] = biological target: Neu5Ac(a2-8)Neu5Ac(a2-3)[Gal(b1-3)GalNAc(b1-4)]Gal(b1-4)Glc
# Outline: as §1
# [7] = biological target: Neu5Ac(a2-8)Neu5Ac(a2-3)[GalNAc(b1-4)]Gal(b1-4)Glc
# Outline: as §1
# [8] = biological target: Neu5Ac(a2-8)Neu5Ac(a2-8)Neu5Ac
# Outline: as §1
# [9] = biological target: Neu5Ac(a2-8)Neu5Ac(a2-8)Neu5Ac(a2-3)Gal(b1-4)Glc
# Outline: as §1
# [10] = biological target: Neu5Ac(a2-8)Neu5Ac(a2-8)Neu5Ac(a2-3)[Gal(b1-3)GalNAc(b1-4)]Gal(b1-4)Glc
# Outline: as §1
# [11] = biological target: Neu5Ac(a2-8)Neu5Ac(a2-8)Neu5Ac(a2-3)[GalNAc(b1-4)]Gal(b1-4)Glc
# Outline: as §1
# [12] = biological target: Neu5Ac(a2-8)Neu5Ac(a2-8)Neu5Ac(a2-8)Neu5Ac(a2-3)[GalNAc(b1-4)]Gal(b1-4)Glc
# Outline: as §1
# [13] = biological target: Neu5Ac(a2-8)Neu5Gc(a2-3)Gal(b1-4)GlcNAc
# Outline: as §1
# [14] = biological target: Neu5Ac(b2-6)Gal(b1-4)GlcNAc
# Outline: as §1
# Neu5Ac(b2-6)GalNAc = biological target: Neu5Ac(b2-6)GalNAc
# Outline: as §1
# [15] = biological target: Neu5Ac9Ac(a2-3)Gal(b1-3)GlcNAc
# Outline: as §1
# [16] = biological target: Neu5Ac9Ac(a2-3)Gal(b1-4)GlcNAc
# Outline: as §1
# [17] = biological target: Neu5Ac9Ac(a2-6)Gal(b1-4)GlcNAc
# Outline: as §1
# [18] = biological target: Neu5Gc(a2-3)Gal(b1-3)GlcNAc
# Outline: as §1
# [19] = biological target: Neu5Gc(a2-3)Gal(b1-3)[Fuc(a1-4)]GlcNAc
# Outline: as §1
# Neu5Gc(a2-3)Gal(b1-4)Glc = biological target: Neu5Gc(a2-3)Gal(b1-4)Glc
# Outline: as §1
# [20] = biological target: Neu5Gc(a2-3)Gal(b1-4)GlcNAc
# Outline: as §1
# [21] = biological target: Neu5Gc(a2-3)Gal(b1-4)GlcNAc(b1-3)Gal(b1-4)GlcNAc(b1-2)Man(a1-3)[Neu5Gc(a2-3)Gal(b1-4)GlcNAc(b1-3)Gal(b1-4)GlcNAc(b1-2)Man(a1-6)]Man(b1-4)GlcNAc(b1-4)GlcNAc
# Outline: as §1
# [22] = biological target: Neu5Gc(a2-3)Gal(b1-4)[Fuc(a1-3)]GlcNAc
# Outline: as §1
# [23] = biological target: Neu5Gc(a2-6)Gal(b1-4)GlcNAc
# Outline: as §1
# Neu5Gc(a2-6)GalNAc = biological target: Neu5Gc(a2-6)GalNAc
# Outline: as §1
# [24] = biological target: Neu5Gc(a2-8)Neu5Ac(a2-3)Gal(b1-4)GlcNAc
# Outline: as §1
# [25] = biological target: Neu5Gc(a2-8)Neu5Gc(a2-3)Gal(b1-4)GlcNAc
# Outline: as §1
# [26] = biological target: Neu5Gc(a2-8)Neu5Gc(a2-3)Gal(b1-4)GlcNAc(b1-3)Gal(b1-4)GlcNAc
# Outline: as §1
# [27] = biological target: Neu5Gc(a2-8)Neu5Gc(a2-6)Gal(b1-4)GlcNAc
# Outline: as §1
# [28] = biological target: Neu5Gc(b2-6)Gal(b1-4)GlcNAc
# Outline: as §1
binder,measurement,setting,value
PX14375l-pdi-526-25-526 (Parabacteroides distasonis) (protein) DEEPKSTLTDVAYYKTQSQMESNVNYLYRTGAIGSYVDFGSAYIGPFASIQEELTGYFSNSYEGQEIVCRYTRELTRQQNTMQLASKMDKVWDDCYRGINVANGAIKHMPEVPMDQATADRLTAEAKFFRAFNYFYLVKTFGAVPFYTDPYELAENMELPRTETSTIYNQIESDLKDAMNVLPEATFAANGHRITKYVAAMTLTDVYMYQHKYAEAAETVRIVVNSNHKLTTNDDLAMNSAFNKLRSTDDLDEAIYAYEYDNQISPSNWLPTYAFDGDASSNGLFGTYAITQKVHGPNDRYLNIYESNDLRRQPNQFYHWTYTNPKTGKVWNSVGNAACCWYYYDEDALLTTGRGTKDWNVYRYAEALLDAAESIAQSTGVTAEAAGYLAQVKARANMEGKTAAEIASSLQSMGKQAFIEECWTERLRELPLEFKMWDMCVRTGMFPNISETTPGQVTYIPLVGAKNASGATIKESDLLWPLSVNEIQRNPSLTQNEGYSAK,glycan array binding signal (z-score),[1],-0.039
same,glycan array binding signal (z-score),Neu5Ac(a2-8)Neu5Ac,-0.205
same,glycan array binding signal (z-score),[2],-0.12
same,glycan array binding signal (z-score),[3],0.186
same,glycan array binding signal (z-score),[4],-0.15
same,glycan array binding signal (z-score),[5],-0.269
same,glycan array binding signal (z-score),[6],-0.225
same,glycan array binding signal (z-score),[7],0.169
same,glycan array binding signal (z-score),[8],-0.318
same,glycan array binding signal (z-score),[9],-0.12
same,glycan array binding signal (z-score),[10],-0.27
same,glycan array binding signal (z-score),[11],-0.132
same,glycan array binding signal (z-score),[12],-0.045
same,glycan array binding signal (z-score),[13],2.74
same,glycan array binding signal (z-score),[14],-0.205
same,glycan array binding signal (z-score),Neu5Ac(b2-6)GalNAc,-0.278
same,glycan array binding signal (z-score),[15],-0.476
same,glycan array binding signal (z-score),[16],-0.383
same,glycan array binding signal (z-score),[17],0.41
same,glycan array binding signal (z-score),[18],-0.223
same,glycan array binding signal (z-score),[19],-0.251
same,glycan array binding signal (z-score),Neu5Gc(a2-3)Gal(b1-4)Glc,-0.378
same,glycan array binding signal (z-score),[20],-0.059
same,glycan array binding signal (z-score),[21],-0.152
same,glycan array binding signal (z-score),[22],0.082
same,glycan array binding signal (z-score),[23],-0.438
same,glycan array binding signal (z-score),Neu5Gc(a2-6)GalNAc,-0.302
same,glycan array binding signal (z-score),[24],-0.206
same,glycan array binding signal (z-score),[25],-0.27
same,glycan array binding signal (z-score),[26],-0.201
same,glycan array binding signal (z-score),[27],-0.034
same,glycan array binding signal (z-score),[28],0.191
